According to the RNAGym collection of RNA variant scans (doi:10.7554/elife.90254):
Read counts are not given, so values of variants with three or more changes are uncertain.

B1: LINE1-full (parent)
chain: UACGUAGGUGGUUUUCCCCUGAUAGUGCUAAGGGGGCCUGGAAGUUUGGACUGGGCAGAGCUCAACACAGCGUGGCAAAGUGGCUGUGGCUAGACUGCCUCUCUGGAUUCCUCGUCACUCAGCAGGGCAUCUCUGAGAGAAAUGCC

Variants of: B1
Test: self-cleavage, relative activity (ratio to wild type); higher = more cleavage; in vitro, sequencing; the parent is a self-cleaving ribozyme

Variant	self-cleavage
U26C U85C G88A	0
U26C U87C U100A	0
U26C U91C A142G	0.68
U26C U96G C145A	0.16
U26C U100C U109A A129G	0
U26C U100C U112A	1.08
U26C U102A C133U A140G	0.3
U26C U102C A138G	1.63
U26C U108G A138G	1.46
U26C U112C A121G	1.02
U26C U115A A141G	1.31
U26C U115C U119G	2.63
U26G A31U C56U A59G A138G A141G	0.11
U26G A43U A67U	0.14
U26G A57G A121G	0.71
U26G A64C A107G	0
U26G A64G G144A	0.18
U26G A64U U85C U100A A129U	0.11
U26G A69G U81C	2.04
U26G A117U A136U	1.44
U26G C37A A140G	0.29
U26G C76U A79G A129U	2.16
U26G G41A A59U G127A	0.65
U26G G44A U100C U119C	1.05

Variant	self-cleavage
U26G G122A A140G	1.39
U26G U39A U96C A141G	0.2
U26G U39C U108C	2.21
U26G U45C U104C	0
U26G U52A A117U U143A	1.6
U26G U87C U104C	0
U26G U100C A138G	2.7
U26G U112A A117G	1.45
U26G U115C A138G	2.04
G27A A43U A59G A69C U134C	0
G27A A50G A64G	0.29
G27A A59G U87C U108C	0
G27A A69U A78U A142G	0.03
G27A G36U C101U U112C A121G	1.29
G27A G55U A129G	0.16
G27A G106A A141G	1.27
G27A U39C U52A C123U A129G C131U U134G	1.1
G27A U45C A94G C101U	0.16
G27A U46A G106U U115C	0.97
G27A U46C A57U U91A	0.08
G27A U62C A107G A124G U130C	0
G27A U109C A141G	1.28
G27A U112A A124U A140G	1.62
G27A U112C U132C C145U	1.13

Variant	self-cleavage
G27A U119C A141G A142U	0.98
G27C A64G U115A U134C U143C	0.11
G27U G97A A138G C145A	0.09
G27U U87A A94G	0.03
G27U U91C G122A G125U A129G	0.13
C28A A59G U104A	0.07
C28A A69G A117G	0.35
C28A C84U U100C	0.44
C28A G36A A117G	1.11
C28A G53A U96A	0.08
C28A U45C A141G	1.3
C28A U47A G122U	1.1
C28G A31G U46C U85C U112C A142G	0
C28G A43G G86A	0.16
C28G A57U G137A	0.15
C28G A59G C66A U96C U143A	0.07
C28G U46C U62C A69G C111U U115C A141G	0
C28U A30G G32C A64G	0.12
C28U A50G U119C U134A	0.51
C28U A50U A78G	0.72
C28U A57G U102C A138C	0
C28U A64U A65U U73C	0.04
C28U A65G U143C	0.07
C28U C101A A129G	1.3

Variant	self-cleavage
C28U G32A U39C U62A A65U U85C	0
C28U U52G A78G A141G	1.88
C28U U102A U115A U130C A141G	1.81
C28U U102C A117C A141U	1.37
C28U U119C A121U A136C	1.27
U29A A30G G86A	0.13
U29A A30U A124G	0.48
U29A A31U A124G	0.34
U29A A42G U46A A65G A78U	0.1
U29A A43G A50G G54A G125U	0.12
U29A A43G A67G G75A C101U U130C	0.78
U29A A57G U130G	0
U29A A57U A121G	0.2
U29A A65G A67U G93A U102C U104A U132C C145G	0.06
U29A A65G A142G	0.04
U29A A77G A138U	2.42
U29A A79G A136G	0.66
U29A A79G U134C	1.35
U29A C37U U102A U119C A129U	1.76
U29A C63U U100C	0.41
U29A C101A A129U	0.82
U29A G32A G44A U100C G114A A141G	1.79
U29A G32U A117C A140G	1.53
U29A G74A A136C	1.08

Variant	self-cleavage
U29A G83C A117G A136G	0.88
U29A G88A A121G	0.13
U29A U39A A43G A67U C113U A124G	0.11
U29A U52A C61U	0.07
U29A U85A U96G	0.2
U29A U91C U112C U115C	0
U29A U102C A138G	2.3
U29C A30G A117G G125U	0.81
U29C A30G U130C	0.63
U29C A30U U45C A65G	0
U29C A30U U115C	0.35
U29C A31C A42G U52A	0.27
U29C A31G U87C A138G A141G	0
U29C A42G U46C U52A U143C	1.02
U29C A42G U87C	0
U29C A42G U96C C123U G127A A140U	0.11
U29C A42G U108C	0.84
U29C A43G U45C U119C A129U	1.31
U29C A50G U102C A117U	1.89
U29C A50U A124G A141G	0.88
U29C A50U U85C	0.49
U29C A50U U119C	1.94
U29C A57G A65G A138G	0
U29C A57G A69C G83A U108C A141G	0.16

Variant	self-cleavage
U29C A59U A77G	1.09
U29C A65G U112A	0
U29C A67C U104A	0.03
U29C A67U A77G A94G	0
U29C A69G U109C	0.43
U29C A69U A142G	0.11
U29C A77G A117G U134C U143A	0
U29C A77G A140G	1.76
U29C A78G U87C A141G	0.19
U29C A79G U85C	0
U29C A94U A129G A140G	0.68
U29C A117U U143C	1.03
U29C A129G A142G U143A	1.53
U29C C37A A57G A69U	0.13
U29C C90A C99U U134A	0.07
U29C C99U A141G A142G	0.53
U29C C113G U132A	0.96
U29C G32A U91A	0.59
U29C G35A A42G C56U U102C C131U	0.05
U29C G35A A107G	1.15
U29C G35A G72A	1.42
U29C G36A G55C	0.16
U29C G40A A77G	1.02
U29C G41A A136G	1.72

Variant	self-cleavage
U29C G41A U47C U62C	0
U29C G48A G49U U115A	1.27
U29C G54A U62A	0
U29C G60A A69G U132A	0
U29C G72A A138G	2.07
U29C G72U U112A	1.18
U29C G83A U96C U100A	0.13
U29C G114C U119C	1.89
U29C U39C G74A A129G	1.29
U29C U39C U52A U119G G126A A136G	0.92
U29C U45C A57G A124U A136G	1.53
U29C U46C A50G U130C U134C	0
U29C U46C G139A	1.12
U29C U46C U102C	0.72
U29C U46C U115C	0
U29C U46G A59G U87A	0.68
U29C U47A A64U U108C A140G	0.35
U29C U47C U130A	1.05
U29C U52A A69G	0.45
U29C U52C A67G A136G	1.53
U29C U52C G53A A107G	1.12
U29C U52C U100C	1.02
U29C U62A U96C U132C	0
